{"source": "the supplement of paper PMC10126150", "note": "Sequences with one replicate were seen in a single cluster, so their values are uncertain.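 Note: ATP exposure 15 min at 22 °C before imaging.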", "data": [{"test_system": "ATP", "assay": "switch fluorescence ratio, 500 uM ATP over buffer (Cy3 cluster intensity, sum of 5 cycles each) (fold (ratio)); higher = stronger signal-on switching upon ATP binding; sequences stand for … in TCGTCGGCAGCGTCAGATGTGTATAAGAGACAGTTTTTTTTTTTTTTTTTTTTTTTTT…TC", "details": "aptamer strand: ATP DNA aptamer (quencher-CACCTGGGGGAGTATTGCGGAGGAAGG + anchor), 100 nM annealed; ATP concentration: 500 uM; one replicate", "outline": "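Switching-strand clusters labelled with Cy3 on a modified Illumina MiSeq flow-cell were annealed to 100 nM quencher-labelled ATP aptamer, imaged in selection buffer, and re-imaged after 15 min with 500 uM ATP at 22 °C. This was done over five cycles with NaOH stripping and re-annealing in between. The fluorescence ratio is summed target-cycle over summed buffer-cycle Cy3 intensity per cluster, averaged per switch-domain sequence, excluding clusters outside 100-1000 RFU.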", "values": [{"sequence": "GCGTGTCTAC", "switch fluorescence ratio": 0.996}, {"sequence": "GCGTTAAAGA", "switch fluorescence ratio": 1.01}, {"sequence": "GCGTTACGGC", "switch fluorescence ratio": 1.07}, {"sequence": "GCGTTACTAG", "switch fluorescence ratio": 1.04}, {"sequence": "GCGTTAGACT", "switch fluorescence ratio": 1.04}, {"sequence": "GCGTTATATC", "switch fluorescence ratio": 1.07}, {"sequence": "GCGTTCCGAA", "switch fluorescence ratio": 1.08}, {"sequence": "GCGTTCGTGC", "switch fluorescence ratio": 0.994}, {"sequence": "GCGTTCGTTG", "switch fluorescence ratio": 0.983}, {"sequence": "GCGTTCTAAC", "switch fluorescence ratio": 1.03}, {"sequence": "GCGTTGATCA", "switch fluorescence ratio": 0.972}, {"sequence": "GCGTTGGTG", "switch fluorescence ratio": 0.963}, {"sequence": "GCGTTTCTCT", "switch fluorescence ratio": 0.983}, {"sequence": "GCGTTTCTGC", "switch fluorescence ratio": 1.06}, {"sequence": "GCGTTTGAGC", "switch fluorescence ratio": 0.98}, {"sequence": "GCGTTTTGAC", "switch fluorescence ratio": 1}, {"sequence": "GCTAAGTGTC", "switch fluorescence ratio": 0.956}, {"sequence": "GCTAATCAAA", "switch fluorescence ratio": 0.984}, {"sequence": "GCTAATCACT", "switch fluorescence ratio": 0.996}, {"sequence": "GCTACAATCA", "switch fluorescence ratio": 1.06}, {"sequence": "GCTACACACA", "switch fluorescence ratio": 1.3}, {"sequence": "GCTACCCAAA", "switch fluorescence ratio": 1.02}, {"sequence": "GCTACCTGTC", "switch fluorescence ratio": 0.976}, {"sequence": "GCTACGGTCG", "switch fluorescence ratio": 1.04}, {"sequence": "GCTAGAGCCG", "switch fluorescence ratio": 1.11}, {"sequence": "GCTAGCAAGA", "switch fluorescence ratio": 0.985}, {"sequence": "GCTAGCACGG", "switch fluorescence ratio": 0.98}, {"sequence": "GCTAGCAGC", "switch fluorescence ratio": 0.973}, {"sequence": "GCTAGCATGG", "switch fluorescence ratio": 1.04}, {"sequence": "GCTAGCGGCG", "switch fluorescence ratio": 1.04}, {"sequence": "GCTAGCGGGC", "switch fluorescence ratio": 1.03}, {"sequence": "GCTAGGGTCT", "switch fluorescence ratio": 1.03}, {"sequence": "GCTAGGTGTT", "switch fluorescence ratio": 0.994}, {"sequence": "GCTAGTACGT", "switch fluorescence ratio": 1.04}, {"sequence": "GCTAGTAGTG", "switch fluorescence ratio": 0.955}, {"sequence": "GCTAGTTGTT", "switch fluorescence ratio": 0.977}, {"sequence": "GCTATAATCT", "switch fluorescence ratio": 0.972}, {"sequence": "GCTATCCTTA", "switch fluorescence ratio": 0.992}, {"sequence": "GCTATCGTCC", "switch fluorescence ratio": 1.04}, {"sequence": "GCTATGATGC", "switch fluorescence ratio": 0.994}, {"sequence": "GCTATTCACT", "switch fluorescence ratio": 1.05}, {"sequence": "GCTATTCGGG", "switch fluorescence ratio": 1.01}, {"sequence": "GCTATTGAGG", "switch fluorescence ratio": 0.994}, {"sequence": "GCTCAACGTT", "switch fluorescence ratio": 1.03}, {"sequence": "GCTCAAGCCC", "switch fluorescence ratio": 1.03}, {"sequence": "GCTCAAGCTC", "switch fluorescence ratio": 1.06}, {"sequence": "GCTCAAGTCC", "switch fluorescence ratio": 1.01}, {"sequence": "GCTCAATCT", "switch fluorescence ratio": 0.964}, {"sequence": "GCTCAATGCC", "switch fluorescence ratio": 1.01}, {"sequence": "GCTCACTGGG", "switch fluorescence ratio": 1.04}, {"sequence": "GCTCAGCATG", "switch fluorescence ratio": 1.29}, {"sequence": "GCTCATGACA", "switch fluorescence ratio": 0.991}, {"sequence": "GCTCCCGATT", "switch fluorescence ratio": 1.37}, {"sequence": "GCTCCCGCGC", "switch fluorescence ratio": 2.76}, {"sequence": "GCTCCGGTAT", "switch fluorescence ratio": 4.64}, {"sequence": "GCTCGACGGT", "switch fluorescence ratio": 1}, {"sequence": "GCTCGATCAG", "switch fluorescence ratio": 1.03}, {"sequence": "GCTCGCCAGA", "switch fluorescence ratio": 1.03}, {"sequence": "GCTCGCCGCC", "switch fluorescence ratio": 1.09}, {"sequence": "GCTCGGGCGA", "switch fluorescence ratio": 1.01}, {"sequence": "GCTCGGGGG", "switch fluorescence ratio": 0.958}, {"sequence": "GCTCGGTTAC", "switch fluorescence ratio": 2.02}, {"sequence": "GCTCTAGGTT", "switch fluorescence ratio": 1}, {"sequence": "GCTCTCAGAG", "switch fluorescence ratio": 1}, {"sequence": "GCTCTCAGCG", "switch fluorescence ratio": 0.999}, {"sequence": "GCTCTCGCCC", "switch fluorescence ratio": 1.12}, {"sequence": "GCTCTGGCCT", "switch fluorescence ratio": 1.04}, {"sequence": "GCTCTGGTTT", "switch fluorescence ratio": 0.976}, {"sequence": "GCTCTGTGGA", "switch fluorescence ratio": 1.04}, {"sequence": "GCTCTTAAGT", "switch fluorescence ratio": 1.02}, {"sequence": "GCTCTTGTGA", "switch fluorescence ratio": 1.01}, {"sequence": "GCTGAAGAGT", "switch fluorescence ratio": 1.03}, {"sequence": "GCTGACACGC", "switch fluorescence ratio": 1.11}, {"sequence": "GCTGACGAAG", "switch fluorescence ratio": 1.04}, {"sequence": "GCTGACGGTA", "switch fluorescence ratio": 1.08}, {"sequence": "GCTGAGATT", "switch fluorescence ratio": 1.02}, {"sequence": "GCTGATATGA", "switch fluorescence ratio": 0.993}, {"sequence": "GCTGATGCCC", "switch fluorescence ratio": 1.11}, {"sequence": "GCTGATGCTT", "switch fluorescence ratio": 1.02}, {"sequence": "GCTGCAATCT", "switch fluorescence ratio": 1.57}, {"sequence": "GCTGCAGAAT", "switch fluorescence ratio": 0.996}, {"sequence": "GCTGCATACT", "switch fluorescence ratio": 2.19}, {"sequence": "GCTGCCCTTT", "switch fluorescence ratio": 1.01}, {"sequence": "GCTGCCGGAT", "switch fluorescence ratio": 1.11}, {"sequence": "GCTGCGTGTG", "switch fluorescence ratio": 1}, {"sequence": "GCTGCTAAAA", "switch fluorescence ratio": 1.04}, {"sequence": "GCTGCTTATG", "switch fluorescence ratio": 0.999}, {"sequence": "GCTGGAAGTG", "switch fluorescence ratio": 0.998}, {"sequence": "GCTGGAGTTT", "switch fluorescence ratio": 0.985}, {"sequence": "GCTGGATAGA", "switch fluorescence ratio": 1.04}, {"sequence": "GCTGGCCAGT", "switch fluorescence ratio": 1.04}, {"sequence": "GCTGGCCGCG", "switch fluorescence ratio": 1}, {"sequence": "GCTGGCTTAA", "switch fluorescence ratio": 0.978}, {"sequence": "GCTGGGAACG", "switch fluorescence ratio": 0.973}, {"sequence": "GCTGGGACTG", "switch fluorescence ratio": 1.03}, {"sequence": "GCTGGGCAA", "switch fluorescence ratio": 1.03}, {"sequence": "GCTGGTTGGA", "switch fluorescence ratio": 1.01}, {"sequence": "GCTGTAAACA", "switch fluorescence ratio": 1}, {"sequence": "GCTGTACCCC", "switch fluorescence ratio": 1.43}, {"sequence": "GCTGTAGAAA", "switch fluorescence ratio": 1}, {"sequence": "GCTGTTAAAC", "switch fluorescence ratio": 1.04}, {"sequence": "GCTGTTTGTC", "switch fluorescence ratio": 0.989}, {"sequence": "GCTTAATCAA", "switch fluorescence ratio": 1.03}, {"sequence": "GCTTAATCTC", "switch fluorescence ratio": 1.06}, {"sequence": "GCTTAATCTT", "switch fluorescence ratio": 1}, {"sequence": "GCTTACAGCA", "switch fluorescence ratio": 0.998}, {"sequence": "GCTTACCGGG", "switch fluorescence ratio": 1.05}, {"sequence": "GCTTATATAG", "switch fluorescence ratio": 0.979}, {"sequence": "GCTTATATGC", "switch fluorescence ratio": 1.02}, {"sequence": "GCTTATCCAA", "switch fluorescence ratio": 1.01}, {"sequence": "GCTTATCTG", "switch fluorescence ratio": 0.973}, {"sequence": "GCTTCAAATC", "switch fluorescence ratio": 1.01}, {"sequence": "GCTTCCTTGC", "switch fluorescence ratio": 1.53}, {"sequence": "GCTTCGGGGT", "switch fluorescence ratio": 0.983}, {"sequence": "GCTTCGTTAT", "switch fluorescence ratio": 1.13}, {"sequence": "GCTTCTATAG", "switch fluorescence ratio": 1.04}, {"sequence": "GCTTCTATT", "switch fluorescence ratio": 1.01}, {"sequence": "GCTTCTGGAC", "switch fluorescence ratio": 1.05}, {"sequence": "GCTTGAACGT", "switch fluorescence ratio": 0.956}, {"sequence": "GCTTGCCTTT", "switch fluorescence ratio": 0.918}, {"sequence": "GCTTGGATGC", "switch fluorescence ratio": 0.986}, {"sequence": "GCTTGTCGCC", "switch fluorescence ratio": 0.957}, {"sequence": "GCTTGTGTCT", "switch fluorescence ratio": 1.04}, {"sequence": "GCTTGTT", "switch fluorescence ratio": 1.01}, {"sequence": "GCTTTAATAT", "switch fluorescence ratio": 0.993}, {"sequence": "GCTTTACGGG", "switch fluorescence ratio": 1}, {"sequence": "GCTTTAGCTG", "switch fluorescence ratio": 1.01}, {"sequence": "GCTTTATCTT", "switch fluorescence ratio": 0.977}, {"sequence": "GCTTTCCAGT", "switch fluorescence ratio": 1.02}, {"sequence": "GCTTTCGATT", "switch fluorescence ratio": 0.987}, {"sequence": "GCTTTTACTC", "switch fluorescence ratio": 1.32}, {"sequence": "GCTTTTATGG", "switch fluorescence ratio": 1}, {"sequence": "GCTTTTGGTT", "switch fluorescence ratio": 0.971}, {"sequence": "GCTTTTTCGG", "switch fluorescence ratio": 1}, {"sequence": "GCTTTTTTCA", "switch fluorescence ratio": 1.01}, {"sequence": "GGAAAAATGG", "switch fluorescence ratio": 0.977}, {"sequence": "GGAAAAATTA", "switch fluorescence ratio": 0.98}, {"sequence": "GGAAAACAGT", "switch fluorescence ratio": 1.03}, {"sequence": "GGAAACATTG", "switch fluorescence ratio": 1.03}, {"sequence": "GGAAATGCCC", "switch fluorescence ratio": 1.03}, {"sequence": "GGAACACCAT", "switch fluorescence ratio": 1.03}, {"sequence": "GGAACATGA", "switch fluorescence ratio": 0.983}, {"sequence": "GGAACCGCCG", "switch fluorescence ratio": 0.995}, {"sequence": "GGAACCTTG", "switch fluorescence ratio": 1.08}, {"sequence": "GGAACGCTTT", "switch fluorescence ratio": 1.05}, {"sequence": "GGAACGGACC", "switch fluorescence ratio": 1.12}, {"sequence": "GGAACGTAGA", "switch fluorescence ratio": 0.983}, {"sequence": "GGAAGATGAG", "switch fluorescence ratio": 1}, {"sequence": "GGAAGCACTG", "switch fluorescence ratio": 1.04}, {"sequence": "GGAAGGATCG", "switch fluorescence ratio": 0.98}, {"sequence": "GGAAGGCTAT", "switch fluorescence ratio": 0.986}, {"sequence": "GGAAGGGCAC", "switch fluorescence ratio": 1.02}, {"sequence": "GGAAGTGCGG", "switch fluorescence ratio": 0.995}]}]}
